Measured values as given in USRE50631E1, “ROR1 antibody immunoconjugates” (VelosBio Inc., priority 2017, dated 2025).
“And” between values parts separate entries of the source, which are not always exact repeats. Equal values may be shown once.

Tests used:
ROR1 on Jeko-1 cells = target: T1, ROR1 on Jeko-1 cells (Homo sapiens, UniProt Q01973); assay: Binding to ROR1-positive Jeko-1 cells (flow cytometry receptor binding assay); conditions: 20 minutes on ice, PE secondary antibody
T1 construct: The Jeko-1 cell line, from mantle cell lymphoma, is a suspension cell line; host or cells: Jeko-1 (human mantle cell lymphoma)
Method: (§1) The binding to tumor cells by antibodies Ab1 and 4A5, as well as ADC constructs derived from those antibodies (ADC-A and ADC-T), was evaluated. First, the binding of Ab1 to two ROR1-positive human tumor cell lines representing different cancer types was tested. The Jeko-1 cell line, from mantle cell lymphoma, is a suspension cell line, while the MDA-MB-231 cell line, from triple negative breast cancer, is an adherent cell line. The cell lines have different levels of ROR1 expression, with Jeko-1 cells displaying about 13507 cell surface copies and the MDA-MB-231 cells displaying about 21015 cell surface copies. The Jeko-1 (ATCC Cat. No. CRL-3006) and MDA-MB-231 (ATCC Cat. No. […]) cell lines were purchased from the American Type Culture Collection and were maintained according to the ATCC recommendations.
(§2) Jeko-1 cells (FIG. 2A) or MDA-MB-231 cells (FIG. 2B) were incubated with 0, 1, 10, 100, or 1000 ng/mL of Ab1 for 20 minutes on ice. After washing off unbound antibody, the cells were incubated with secondary anti-human IgG antibody labeled with phycoerythrin (PE) for an additional 20 minutes. The amount of PE fluorescence was measured using the BDFACS Verse analyzer and FlowJo V10 software. The PE signal for the highest concentration was used as the maximal binding signal to calculate the % maximal binding. EC50 was calculated using GraphPad Prism 7. […]

ROR1 on MDA-MB-231 cells = target: T2, ROR1 on MDA-MB-231 cells (Homo sapiens, UniProt Q01973); assay: Binding to ROR1-positive MDA-MB-231 cells (flow cytometry receptor binding assay); conditions: 20 minutes on ice, PE secondary antibody
T2 construct: the MDA-MB-231 cell line, from triple negative breast cancer, is an adherent cell line; host or cells: MDA-MB-231 (human triple negative breast cancer)
Method: as §1, §2

Jeko-1 cells = assay: Internalization by Jeko-1 cells (pulse-chase flow cytometry); format: cell-based, human
Method: Multiple methods were used to determine antibody internalization. In one approach, internalization was measured using a pulse-chase methodology that quantitates non-internalized, cell surface antibody at 15, 30, 60, 120, and 240 minutes using flow cytometry. Jeko-1 cells were grown and harvested prior to confluency, washed with cold PBS and resuspended at 1×10^7 in cold FACS buffer (PBS+2% FBS-Fisher/Gibco Cat. No. 16140071). 1×10^6 cells were added to microcentrifuge tubes or wells. Internalization of Ab1 and ADC constructs by the cells was determined at saturating antibody concentrations, using 30 μg/ml for Jeko-1 cells and 100 μg/mL for MDA-MB-231 cells. 10× stock solutions of ADC constructs or Ab1 were prepared (300 μg/ml for use with Jeko-1 cells or 1 mg/ml for use with MDA-MB-231 cells) and 10 μL of sample or buffer control was added to the following (adding additional tubes for each time point): • a) Unstained • b) Secondary antibody only • c) Negative Control hIgG mAb at 30 μg/ml—time 0 • d) Positive Control ADC construct or Ab1 at 30 μg/ml—time 0 • e) ADC construct or Ab1—time point 1 • f) ADC construct or Ab1—time point 2, etc.
(§3) Cells and antibody were incubated on ice for 20 minutes, spun at 300×g for 4 minutes, washed twice with 200 μL of FACS buffer, and resuspended in 100 μL of FACS buffer. The samples were incubated at 37° C. for 15, 30, 60, 120, and 240 minutes, as indicated above. Internalization was terminated by transferring the samples to ice. A time course for antibody internalization was generated for each test article as described above, after which antibody remaining on the cell surface was detected using a PE-labeled secondary antibody. Cells were spun at 250×g, washed twice with FACS buffer and resuspended in 100 μL of FACS buffer. […] The median fluorescent intensity (MFI) was quantitated and the degree of receptor internalization was determined using the amount of the antibody or ADC present at each time point when compared to the amount present at time=0. […]

MDA-MB-231 cells [1] = assay: Internalization by MDA-MB-231 cells (pulse-chase flow cytometry); format: cell-based, human; conditions: MDA-MB-231, in less than 60 minutes
Method: Multiple methods were used to determine antibody internalization. In one approach, internalization was measured using a pulse-chase methodology that quantitates non-internalized, cell surface antibody at 15, 30, 60, 120, and 240 minutes using flow cytometry. Jeko-1 cells were grown and harvested prior to confluency, washed with cold PBS and resuspended at 1×10^7 in cold FACS buffer (PBS+2% FBS-Fisher/Gibco Cat. No. 16140071). 1×10^6 cells were added to microcentrifuge tubes or wells. Internalization of Ab1 and ADC constructs by the cells was determined at saturating antibody concentrations, using 30 μg/ml for Jeko-1 cells and 100 μg/mL for MDA-MB-231 cells. […]
as §3, with “The samples were incubated at 37° C. for 15, 30, 60, 120, and 240 minutes, as indicated above. Internalization was terminated by transferring the samples to ice.” left out, “antibody.” for “antibody. Cells were spun at 250×g, washed twice with FACS buffer and resuspended in 100 μL of FACS buffer.”

[2] = target: T3, cell surface ROR1 on Jeko-1 cells (Homo sapiens, UniProt Q01973); assay: Cell surface ROR1 expression during internalization, Jeko-1 cells; format: cell-based; conditions: up to 4 hours
T3 construct: The Jeko-1 cell line, from mantle cell lymphoma, is a suspension cell line; host or cells: Jeko-1 (human mantle cell lymphoma)
Method: Internalization of antibodies was measured using pulse-chase approaches that detected non-internalized, cell surface antibody at various time points (2, 5, 10, 15, 20, 30, 60, 120 and 240 minutes). In this study, in addition to measuring non-internalized cell surface antibody, the expression of ROR1 on the cell surface was quantitated either by (1) re-staining with Ab1 and a secondary antibody or (2) by using a second, labeled anti-ROR1 antibody that recognizes an epitope distinct from that of Ab1.
For the first approach, internalization of Ab1 on Jeko-1 cells was performed as described in Example 3 (one sample was processed at each time point to quantitate antibody remaining on the cell surface). Additionally, a second sample at each time point was rapidly re-stained using saturating levels of Ab1 (30 μg/mL) while maintaining the cells on ice. Subsequently, the cells were washed and surface antibody was quantitated using the same secondary antibody used for internalization measurements.
An alternative approach to measuring cell surface ROR1 expression in conjunction with Ab1 internalization studies was tested. Specifically, cell surface ROR1 expression was quantitated at 0, 0.5, 1, 2, and 4 hours by staining cells directly with a labeled anti-ROR1 antibody that binds an epitope distinct from that of Ab1.

DLBCL-GCB PDX = DLBCL-GCB PDX mouse model; format: in vivo; conditions: ADC-A 5 mg/kg IV qw; Ab1 10 mg/kg IV qw; venetoclax 50 mg/kg PO qd; 24 days
Method: Germinal center B-cell like diffuse large B-cell lymphoma (DLBCL-GCB) cells were engrafted subcutaneously into mice, and the engrafted mice were randomized into five groups, 6 mice/group. The groups were vehicle control, 10 mg/kg Ab1, 50 mg/kg venetoclax, 10 mg/kg Ab1 plus 50 mg/kg venetoclax, and 5 mg/kg ADC-A. Ab1 and ADC-A were administered IV, qw and venetoclax was administered PO qd.

MDA-MB-231 cells [3] = assay: Internalization by immunofluorescent staining, MDA-MB-231 cells; format: cell-based, human
Method: Internalization of Ab1 was also characterized using conventional immunofluorescent staining methods and MDA-MB-231 cells. In this approach, Ab1 was loaded at the cell surface and the cells were subsequently fixed and surface Ab1 was quantitated. In addition, a second sample of the cells was permeabilized and total Ab1 (surface and intracellular) was quantitated. In this protocol, the primary antibody was allowed to incubate without a secondary antibody, eliminating the possibility that the secondary antibody might influence internalization. Surface staining was observed. After permeabilization, clear and distinct punctate intracellular staining of Ab1 was observed. […] This finding is consistent with a mode of antibody internalization that primarily occurs by the lysosome/endosome pathway. Finally, the rate of internalization was quantitated. […] The newly expressed cell surface receptor may be recycled, expressed from intracellular stores, and/or newly synthesized. The extent and character of co-localization of Ab1 was similar to EGFR, showing substantially lysosomal co-localization after 4 hours.

OCI-Ly18 = assay: Cytotoxicity in vitro (CellTiter-Glo viability), OCI-Ly18; format: cell-based, human; conditions: OCI-Ly18 (DLBCL), 72 hours
U2932 = assay: Cytotoxicity in vitro (CellTiter-Glo viability), U2932; format: cell-based, human; conditions: U2932 (DLBCL), 72 hours
OCI-Ly19 = assay: Cytotoxicity in vitro (CellTiter-Glo viability), OCI-Ly19; format: cell-based, human; conditions: OCI-Ly19 (DLBCL), 72 hours
KMS-PE = assay: Cytotoxicity in vitro (CellTiter-Glo viability), KMS-PE; format: cell-based, human; conditions: KMS-PE (KMS-12PE in Table 9.3) (MM), 72 hours
RPMI-8229 = assay: Cytotoxicity in vitro (CellTiter-Glo viability), RPMI-8229; format: cell-based, human; conditions: RPMI-8229 (MM), 72 hours
OPM2 = assay: Cytotoxicity in vitro (CellTiter-Glo viability), OPM2; format: cell-based, human; conditions: OPM2 (MM), 72 hours
L363 = assay: Cytotoxicity in vitro (CellTiter-Glo viability), L363; format: cell-based, human; conditions: L363 (MM), 72 hours
NCI-H929 = assay: Cytotoxicity in vitro (CellTiter-Glo viability), NCI-H929; format: cell-based, human; conditions: NCI-H929 (MM), 72 hours
HCC1806 = assay: Cytotoxicity in vitro (CellTiter-Glo viability), HCC1806; format: cell-based, human; conditions: HCC1806 (TNBC), 72 hours
MDA-MB-231 = assay: Cytotoxicity in vitro (CellTiter-Glo viability), MDA-MB-231; format: cell-based, human; conditions: MDA-MB-231 (TNBC), 72 hours
Hs578T = assay: Cytotoxicity in vitro (CellTiter-Glo viability), Hs578T; format: cell-based, human; conditions: Hs578T (TNBC), 72 hours
DU4475 = assay: Cytotoxicity in vitro (CellTiter-Glo viability), DU4475; format: cell-based, human; conditions: DU4475 (TNBC), 72 hours
OvCar4 = assay: Cytotoxicity in vitro (CellTiter-Glo viability), OvCar4; format: cell-based, human; conditions: OvCar4 (Ovarian), 72 hours
ES2 = assay: Cytotoxicity in vitro (CellTiter-Glo viability), ES2; format: cell-based, human; conditions: ES2 (Ovarian), 72 hours
A2780 = assay: Cytotoxicity in vitro (CellTiter-Glo viability), A2780; format: cell-based, human; conditions: A2780 (Ovarian), 72 hours

T1 sequence (Q01973 30-937): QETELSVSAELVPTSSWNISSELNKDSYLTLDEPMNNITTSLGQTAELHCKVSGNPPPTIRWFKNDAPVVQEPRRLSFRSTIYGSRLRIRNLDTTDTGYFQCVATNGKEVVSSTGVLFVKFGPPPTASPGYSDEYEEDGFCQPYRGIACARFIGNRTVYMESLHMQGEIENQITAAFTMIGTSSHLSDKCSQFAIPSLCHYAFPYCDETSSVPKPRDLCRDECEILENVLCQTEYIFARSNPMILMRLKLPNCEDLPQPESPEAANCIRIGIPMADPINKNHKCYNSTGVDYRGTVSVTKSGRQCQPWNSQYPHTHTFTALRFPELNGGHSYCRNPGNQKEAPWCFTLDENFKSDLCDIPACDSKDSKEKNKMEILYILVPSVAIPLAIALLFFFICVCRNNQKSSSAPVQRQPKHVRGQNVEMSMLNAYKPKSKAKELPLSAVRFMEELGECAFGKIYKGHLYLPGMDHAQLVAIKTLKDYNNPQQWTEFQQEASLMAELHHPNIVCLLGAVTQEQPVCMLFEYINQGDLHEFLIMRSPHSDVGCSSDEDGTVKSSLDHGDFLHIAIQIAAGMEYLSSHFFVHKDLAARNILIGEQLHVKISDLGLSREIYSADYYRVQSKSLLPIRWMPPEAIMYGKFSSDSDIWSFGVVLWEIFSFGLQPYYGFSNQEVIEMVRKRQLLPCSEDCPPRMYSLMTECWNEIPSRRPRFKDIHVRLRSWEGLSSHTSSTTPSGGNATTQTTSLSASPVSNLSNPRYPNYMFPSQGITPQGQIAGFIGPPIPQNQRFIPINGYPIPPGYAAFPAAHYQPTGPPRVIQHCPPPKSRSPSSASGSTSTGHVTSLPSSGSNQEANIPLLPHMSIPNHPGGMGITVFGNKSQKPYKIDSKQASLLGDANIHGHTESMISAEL
T2 sequence (Q01973 30-937): as above
T3 sequence (Q01973 30-937): as above

B1: Ab1 (antibody)
heavy: QVQLQESGPGLVKPSQTLSLTCTVSGYAFTAYNIHWVRQAPGQGLEWMGSFDPYDGGSSYNQKFKDRLTISKDTSKNQVVLTMTNMDPVDTATYYCARGWYYFDYWGHGTLVTVSS[skipping human IgG1 constant region]
light: DIVMTQTPLSLPVTPGEPASISCRASKSISKYLAWYQQKPGQAPRLLIYSGSTLQSGIPPRFSGSGYGTDFTLTINNIESEDAAYYFCQQHDESPYTFGEGTKVEIKRTVAAPSVFIFPPSDEQLKSGTASVVCLLNNFYPREAKVQWKVDNALQSGNSQESVTEQDSKDSTYSLSSTLTLSKADYEKHKVYACEVTHQGLSSPVTKSFNRGEC
ROR1 on Jeko-1 cells
  EC50 of binding to cells: 0.0136 µg/mL and 0.01639 µg/mL and 0.0165 µg/mL
ROR1 on MDA-MB-231 cells
  EC50 of binding to cells: 0.0328 µg/mL
Jeko-1 cells; Jeko-1, in less than 120 minutes
  Internalization of the bound antibody: 80-90%
MDA-MB-231 cells [1]
  Internalization of the bound antibody: 80-90%
[2]
  cell surface ROR1 expression during treatment: restored to initial or slightly higher levels
DLBCL-GCB PDX
  tumor response: ineffective
MDA-MB-231 cells [3]; MDA-MB-231, continuous exposure to Ab1
  rate of internalization: the initial rate was approximately twice the average rate, and the terminal rate was approximately half the average rate
MDA-MB-231 cells [3]; MDA-MB-231, lysosome-specific tracker
  intracellular localization of internalized antibody: co-localized with the lysosomal pathway

B2: ADC-B: Ab1 conjugated via SMCC to DM1 (conjugate)
heavy: QVQLQESGPGLVKPSQTLSLTCTVSGYAFTAYNIHWVRQAPGQGLEWMGSFDPYDGGSSYNQKFKDRLTISKDTSKNQVVLTMTNMDPVDTATYYCARGWYYFDYWGHGTLVTVSS[skipping human IgG1 constant region]
light: DIVMTQTPLSLPVTPGEPASISCRASKSISKYLAWYQQKPGQAPRLLIYSGSTLQSGIPPRFSGSGYGTDFTLTINNIESEDAAYYFCQQHDESPYTFGEGTKVEIKRTVAAPSVFIFPPSDEQLKSGTASVVCLLNNFYPREAKVQWKVDNALQSGNSQESVTEQDSKDSTYSLSSTLTLSKADYEKHKVYACEVTHQGLSSPVTKSFNRGEC
Jeko-1 cells; Jeko-1 cells
  internalization compared with Ab1 / ADC-A: did not negatively impact binding or internalization
OCI-Ly18
  EC50: 40 nM
U2932
  EC50: 53.9 nM
OCI-Ly19
  EC50: 40 nM
KMS-PE
  EC50: 72 nM
RPMI-8229
  EC50: 91 nM
OPM2
  EC50: 108 nM
L363
  EC50: 177 nM
NCI-H929
  EC50: 90 nM
HCC1806
  EC50: 23.1 nM
MDA-MB-231
  EC50: 67.5 nM
Hs578T
  EC50: 11.7 nM
DU4475
  EC50: 105 nM
OvCar4
  EC50: 291 nM
ES2
  EC50: 117 nM
A2780
  EC50: 36 nM
